The source of these data is PMC4336329 (PLoS ONE, 2015).

About 2,200 (0.71%) of roughly 310,000 compounds showed an effect of 50% or more. Effects have a minus sign here. The list shows a part of the results.

The target of this assay is human ether-à-go-go-related gene (hERG) potassium channel (human, UniProt Q12809). As to the kind of experiment: primary screen, population patch clamp on CHO cells stably expressing hERG.
human ether-à-go-go-related gene (hERG) potassium channel, sequence (Q12809 whole entry, looked up): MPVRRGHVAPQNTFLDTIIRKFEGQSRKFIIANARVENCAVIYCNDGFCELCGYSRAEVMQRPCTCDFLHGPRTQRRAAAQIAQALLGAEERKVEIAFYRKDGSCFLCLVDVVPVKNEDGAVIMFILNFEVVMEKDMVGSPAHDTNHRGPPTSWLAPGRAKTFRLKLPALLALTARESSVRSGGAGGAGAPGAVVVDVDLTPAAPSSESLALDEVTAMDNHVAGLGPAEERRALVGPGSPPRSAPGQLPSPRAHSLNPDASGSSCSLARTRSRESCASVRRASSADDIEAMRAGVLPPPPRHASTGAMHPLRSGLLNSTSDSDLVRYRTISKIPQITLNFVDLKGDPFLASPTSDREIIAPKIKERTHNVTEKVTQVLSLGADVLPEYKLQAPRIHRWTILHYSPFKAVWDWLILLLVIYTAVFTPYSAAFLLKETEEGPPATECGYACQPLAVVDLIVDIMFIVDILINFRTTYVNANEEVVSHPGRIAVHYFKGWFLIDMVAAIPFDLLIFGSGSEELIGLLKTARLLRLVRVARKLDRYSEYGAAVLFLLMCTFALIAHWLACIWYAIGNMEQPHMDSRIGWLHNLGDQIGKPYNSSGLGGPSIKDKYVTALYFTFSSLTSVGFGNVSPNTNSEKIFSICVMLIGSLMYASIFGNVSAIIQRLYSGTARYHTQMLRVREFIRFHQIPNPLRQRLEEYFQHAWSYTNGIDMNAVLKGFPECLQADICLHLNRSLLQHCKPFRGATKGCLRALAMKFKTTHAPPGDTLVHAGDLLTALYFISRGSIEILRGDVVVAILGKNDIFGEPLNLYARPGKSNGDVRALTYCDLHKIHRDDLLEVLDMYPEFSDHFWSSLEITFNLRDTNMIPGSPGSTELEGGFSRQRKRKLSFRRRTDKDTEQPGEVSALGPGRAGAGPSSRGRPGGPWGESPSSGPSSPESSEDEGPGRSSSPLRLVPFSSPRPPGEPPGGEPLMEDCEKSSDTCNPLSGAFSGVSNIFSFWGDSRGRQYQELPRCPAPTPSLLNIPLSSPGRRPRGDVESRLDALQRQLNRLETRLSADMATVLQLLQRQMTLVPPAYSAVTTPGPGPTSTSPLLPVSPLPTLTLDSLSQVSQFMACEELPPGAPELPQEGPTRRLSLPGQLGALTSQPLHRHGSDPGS
In the case of `Cc1noc(NS(=O)(=O)c2ccc(NC(=O)CSc3nc4c(cc3C#N)CCCC4)cc2)c1C`, the “hERG current change (%, negative = inhibition) at 1uM” value was 13.8%. For the molecule `COc1ccccc1CNC(=O)C12CC3CC(CC(C3)C1)C2`, the “hERG current change (%, negative = inhibition) at 1uM” value came out at 11.4%. The result for `COc1ccc(C2N(c3ccccc3)CCN2c2ccccc2)cc1O` reads 9.74%; that for `CC1CC(C)CN(S(=O)(=O)c2ccc(Oc3ccc([N+](=O)[O-])cc3)cc2)C1` (centres unmarked), 14.4%; that for `COC(=O)C(=C/C=C/c1ccco1)C(=O)OC`, 11.2%. Consider `Cc1ccc2nc(-c3cccnc3)c(NC3CCCC3)n2c1`, for which the “hERG current change (%, negative = inhibition) at 1uM” value was determined as 13.2%. The same measure for `Clc1ccc(-n2cnnn2)cc1`: 6%. As to `O=C(CCc1nc2ccccc2c(=O)[nH]1)N1CCCc2ccccc21`, the “hERG current change (%, negative = inhibition) at 1uM” value was 12.8%.

As for `COc1ccccc1S(=O)(=O)Nc1ccc(-c2nnc3n2CCCCC3)cc1`, the “hERG current change (%, negative = inhibition) at 1uM” value is reported as -5.71%. The same measure for `COC(=O)c1ccsc1NC(=O)c1ccc(Cl)s1`: 15.1%; for `C/C(CCC(=O)OC[C@H]1O[C@H](C#Cc2ccccc2)C=C[C@@H]1Oc1ccc(C)cc1)=N\OC[C@@H](O)[C@H]1O[C@@H]2OC(C)(C)O[C@@H]2[C@H]1O`: -15.7%.

As to `O=C(N/N=C/C=C/c1ccccc1)c1ccncc1`, the “hERG current change (%, negative = inhibition) at 1uM” value is on record as -1.14%. The result for `CCCCNC(=S)N1CCN(CC)CC1.O=C(O)C(=O)O` reads -5.54%; that for `Cc1nnc(SCc2nnc(-c3ccccc3Br)o2)s1`, 18.8%; that for `CCOc1cc(S(=O)(=O)N2CCOCC2)ccc1F`, 7.76%.

Take `O=C(c1ccc(Cl)c(S(=O)(=O)N2CCOCC2)c1)N1CCN(c2ccccc2)CC1`: the “hERG current change (%, negative = inhibition) at 1uM” value is given as -0.271%.

With `COc1ccccc1OCC(=O)NNC(=S)NC(=O)c1ccco1`, the “hERG current change (%, negative = inhibition) at 1uM” value is recorded as 5.17%. Consider `C/C(=N/OC(=O)c1ccc(C)cc1)C(=O)c1ccc(Br)cc1`, for which the “hERG current change (%, negative = inhibition) at 1uM” value came to 17%. The same measure for `Cc1ccc(SCc2nc3ncccn3c2Br)cc1`: -1.32%; for `Cc1ccc(NC(=O)c2ccc(S(=O)(=O)N3CCCC3)cc2)cc1`: 12.1%; for `C/C(CC(=O)Nc1ccc(N(C)C)cc1)=N\NC(=O)c1ccc(Cl)cc1`: -11.5%.

Consider `N#C/C(=C/Nc1ccccc1F)S(=O)(=O)c1ccc(Cl)cc1`, for which the “hERG current change (%, negative = inhibition) at 1uM” value is recorded as 21.6%. The result for `CCOC(=O)NC(=O)c1cn(Nc2ccccc2C(F)(F)F)c(=O)[nH]c1=O` reads -1.55%; that for `Cc1ncc(CN2CCCC(C(=O)c3cccc(OC(C)C)c3)C2)s1` (centres unmarked), 6.97%; that for `CC(C)Sc1nnc(-c2ccc(S(=O)(=O)N3CCOCC3)cc2)n1C`, 7.81%.

With `COc1ccc(OC)c(NC(=O)CS(=O)(=O)c2ccccc2)c1`, the “hERG current change (%, negative = inhibition) at 1uM” value amounted to 9.89%. The result for `Oc1ccc(N=Cc2ccc(-c3cccs3)s2)cc1` reads 8.48%; that for `CCOc1ccc(-c2cc(CCCC(=O)Nc3cc(OC)ccc3OC)no2)cc1`, -1.35%.

As to `CC(C)(C)NC(=O)/C(=C\C=C\c1ccccc1)NC(=O)c1ccc([N+](=O)[O-])cc1`, the “hERG current change (%, negative = inhibition) at 1uM” value amounted to 11.2%. The same measure for `CCn1c(NCc2cc(OC)c(OC)c(OC)c2)nc2ccccc21.Cl`: 14.2%; for `COC(=O)c1c(NC(C)=O)sc(C(=O)Nc2ccccc2OC)c1C`: 15.3%; for `CN(CCCC(=O)NC1CC(C)(C)NC(C)(C)C1)S(=O)(=O)c1ccc([N+](=O)[O-])cc1`: 9.24%. As to `CC(C)(C)c1ccc(C(=O)N2CCCC2c2cccs2)cc1` (centres unmarked), the “hERG current change (%, negative = inhibition) at 1uM” value is 22.2%.

Consider `CN(C)c1cccc(C(=O)N/C=C/n2cnc3cc(C(F)(F)F)ccc32)c1`, for which the “hERG current change (%, negative = inhibition) at 1uM” value is on record as 16.1%. The same measure for `CN(C)CCCN(C(=O)c1ccc(C(=O)c2ccccc2)cc1)c1nc2c(F)cccc2s1`: -1.61%; for `O=C(CNC(=O)c1ccc(S(=O)(=O)N2CCCC2)cc1)N/N=C/c1c(Cl)cccc1Cl`: 6.4%. The same measure for `Cc1c(CCC(=O)O)c(=O)oc2c(C)c(OCc3ccccc3Cl)ccc12`: 15.8%; for `COc1ccc(NC(=O)c2ccc(S(=O)(=O)N3CCOCC3)o2)cc1`: 11%.

Take `NS(=O)(=O)c1ccc(CCNC(=O)CSc2nc3ccsc3c(=O)n2CCCCC(=O)O)cc1`: the “hERG current change (%, negative = inhibition) at 1uM” value is on record as 20.5%. The result for `COc1cc(/C=N/NC(=O)c2ccc(-n3cccc3)cc2)ccc1O` reads 7.52%; that for `Cc1cc2c3c(c1)C(C)CC(C)(C)N3C(=O)C2=O` (centres unmarked), 3.89%; that for `COc1ccc(/C(N)=N/OC(=O)Cc2ccc(C)cc2)cc1OC`, 3.15%. The same measure for `COc1ccc(C(O)Cn2cc([N+](=O)[O-])nc2C)cc1` (centres unmarked): 12.4%. The result for `COc1cccc(CNC(=O)CNC(=O)c2cccs2)c1` reads 18.1%.

With `Cc1ccc(NC(=O)Cn2nc(C)c3ccccc3c2=O)cc1`, the “hERG current change (%, negative = inhibition) at 1uM” value turned out to be 2.11%. As for `OC(CNCCNc1ncccc1C(F)(F)F)COc1ccc(F)cc1` (centres unmarked), the “hERG current change (%, negative = inhibition) at 1uM” value is -25.6%. On to `O=C(COC(=O)c1cccc(S(=O)(=O)N2CCOCC2)c1)Nc1ncc(C(F)(F)F)cc1Cl`, for which the “hERG current change (%, negative = inhibition) at 1uM” value is -12%. The same measure for `CC1=NC(Nc2nc(C)c3ccccc3n2)=NC(C)(C)C1`: -19.7%. The same measure for `Cc1ccc(NC(=O)CSc2nc(=O)n(CCCN3CCOCC3)c3c2CCCC3)cc1`: -7.38%; for `Cc1ccnc(Nc2nc3ccccc3s2)n1`: 11%. The result for `Cc1cc(NC(=O)Cn2nc(-c3cccs3)ccc2=O)cc(C)c1Br` reads 17.6%; that for `Cc1ccc(C(=O)NC(=S)NNC(=O)c2ccccc2[N+](=O)[O-])cc1`, 10.7%. On to `O=C(CN1CCCCC1)Nc1ccc(F)c(Cl)c1`, for which the “hERG current change (%, negative = inhibition) at 1uM” value is 1.07%. Consider `CS(=O)(=O)c1cccc(NC(=O)C2CCCN2S(=O)(=O)c2ccc(F)cc2)c1` (centres unmarked), for which the “hERG current change (%, negative = inhibition) at 1uM” value amounted to 13.4%.

Turning to `COc1ccc(C2CC(c3ccccc3)=NN2S(=O)(=O)c2ccccc2)c(OC)c1` (centres unmarked), the “hERG current change (%, negative = inhibition) at 1uM” value was 13%. The result for `CC(=O)N/C(=N\OCc1ccc(Br)cc1)c1nonc1NC(C)=O` reads 12.6%.
